# Assay results taken from the supplement of paper PMC10126150.
# Values marked as one replicate rest on one cluster of the flow cell; about a third of the high ones do not repeat.
# Tested on: ATP
# Assay: switch fluorescence ratio, 500 uM ATP over buffer (Cy3 cluster intensity, sum of 5 cycles each) (fold (ratio)); higher = stronger signal-on switching upon ATP binding; sequences stand for … in TCGTCGGCAGCGTCAGATGTGTATAAGAGACAGTTTTTTTTTTTTTTTTTTTTTTTTT…TC
# Settings: aptamer strand: ATP DNA aptamer (quencher-CACCTGGGGGAGTATTGCGGAGGAAGG + anchor), 100 nM annealed; ATP concentration: 500 uM; one replicate
# In short: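 The fluorescence ratio divides summed target-cycle Cy3 intensity by summed buffer-cycle Cy3 intensity for each cluster and is averaged per switch-domain sequence. Cy3-labelled switching-strand clusters on a modified Illumina MiSeq flow-cell were annealed to 100 nM quencher-labelled ATP aptamer, then imaged in selection buffer and again after 15 min with 500 uM ATP at 22 °C. Five such cycles were run, with NaOH stripping and re-annealing between them, and clusters outside 100-1000 RFU were excluded.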
# 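Note: ATP exposure 15 min at 22 °C before imaging.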
row,Sequence,switch fluorescence ratio
1,GGGGCGCAGA,0.993
2,GGGGCGCGCT,1.01
3,GGGGCGGGCT,0.985
4,GGGGCGGGTC,1.03
5,GGGGCGTCCT,0.985
6,GGGGCTACAC,0.982
7,GGGGCTACGG,1.01
8,GGGGCTCCAT,0.942
9,GGGGCTCTGC,0.964
10,GGGGCTGATC,1.09
11,GGGGCTGTCA,0.954
12,GGGGGAGGAC,1.01
13,GGGGGCACCG,0.992
14,GGGGGCTACA,1
15,GGGGGCTGC,0.935
16,GGGGGCTTTA,0.988
17,GGGGGGCCA,1.01
18,GGGGGTCGTC,0.955
19,GGGGGTTAA,1.03
20,GGGGTACGG,1.01
21,GGGGTCAGGC,0.998
22,GGGGTCGCTT,1
23,GGGGTCTCGT,0.984
24,GGGGTCTGTA,0.971
25,GGGGTTAAGC,0.975
26,GGGGTTATAC,1.06

row,Sequence,switch fluorescence ratio
1,GGGGTTCCCT,1.05
2,GGGGTTGCTA,0.981
3,GGGTAAGGG,1.01
4,GGGTACCGGA,0.982
5,GGGTAGCTAA,0.988
6,GGGTCAATA,1.07
7,GGGTCATAAG,0.975
8,GGGTCATTTC,1.05
9,GGGTCCCA,0.952
10,GGGTCCCTTT,0.988
11,GGGTCCGGAA,1.04
12,GGGTCCTATC,1.01
13,GGGTCCTGTA,1.08
14,GGGTCGACCT,1.06
15,GGGTCGAGCA,1
16,GGGTCGATAT,0.981
17,GGGTCTTAAC,0.992
18,GGGTGAGCCT,1.02
19,GGGTGCATCT,0.961
20,GGGTGCCCCG,1.13
21,GGGTGCGACG,0.989
22,GGGTGCGGGT,0.968
23,GGGTGGCTCA,0.985
24,GGGTGGTACT,1.01
25,GGGTGTAGGG,1.03
26,GGGTGTCACA,0.951

row,Sequence,switch fluorescence ratio
1,GGGTGTGGTT,1.01
2,GGGTGTTTAT,1.06
3,GGGTTATATC,1.02
4,GGGTTCGACT,1.05
5,GGGTTCTGAC,0.999
6,GGGTTGCTGC,0.973
7,GGGTTGGGCG,0.972
8,GGGTTTACGC,0.995
9,GGTAAAAACA,0.998
10,GGTAAAGAG,1.54
11,GGTAACCATT,1.05
12,GGTAACCGTG,0.968
13,GGTAAGGCCT,0.966
14,GGTAATACTG,1.14
15,GGTAATCCCT,1.08
16,GGTAATCGAT,0.983
17,GGTAATCTAA,1.01
18,GGTAATGCG,0.991
19,GGTACAAGGC,0.976
20,GGTACCCCGG,1.07
21,GGTACCGCAC,1.84
22,GGTACCTACC,1.2
23,GGTACGATCC,1.02
24,GGTACGCAGA,1.01
25,GGTACGCAT,1.38
26,GGTACGTGA,1.13

row,Sequence,switch fluorescence ratio
1,GGTACGTGCT,1.04
2,GGTACTGAAA,1.16
3,GGTAGCTCTG,1.03
4,GGTAGGTGCC,1.03
5,GGTAGTCAGG,0.989
6,GGTATACAGG,1.01
7,GGTATACAGT,0.987
8,GGTATAGAAA,1.05
9,GGTATAGTAA,1.03
10,GGTATCAC,1.04
11,GGTATCCAGC,1.01
12,GGTATCGACA,0.997
13,GGTATGATCA,1
14,GGTATTACA,0.994
15,GGTATTCTA,0.985
16,GGTATTCTAC,0.983
17,GGTCAAAACA,1.03
18,GGTCAAAACG,1.03
19,GGTCAACCTG,0.977
20,GGTCAAGAAA,0.948
21,GGTCAAGCGC,1
22,GGTCAAGGTC,1.02
23,GGTCACTAGT,0.989
24,GGTCAGATT,1
25,GGTCAGCGCC,1
26,GGTCAGGTGC,2.84

row,Sequence,switch fluorescence ratio
1,GGTCATACAT,1.01
2,GGTCCACTTG,0.956
3,GGTCCAGGCG,0.984
4,GGTCCCAGGG,1.16
5,GGTCCCCA,0.998
6,GGTCCCGGTA,1.09
7,GGTCCCTGGT,1
8,GGTCCGCCCG,1
9,GGTCCGCTTG,1.1
10,GGTCCGGTCG,0.996
11,GGTCCGTCTG,1
12,GGTCCTAGCG,0.958
13,GGTCCTT,1.02
14,GGTCCTTAG,1.06
15,GGTCGAGCGT,1.02
16,GGTCGCAGAA,1.06
17,GGTCGCCTGC,0.948
18,GGTCGGCATT,0.964
19,GGTCGGGTGA,0.975
20,GGTCGTTCCG,0.945
21,GGTCTAAACT,1.04
22,GGTCTCATCC,1.03
23,GGTCTCCCTT,1.15
24,GGTCTGATCG,0.973
25,GGTCTGCCGT,0.92
26,GGTCTGCCTA,1.07

row,Sequence,switch fluorescence ratio
1,GGTCTTTACT,1.03
2,GGTCTTTATT,0.994
3,GGTCTTTTCC,0.971
4,GGTGAACCGA,1.02
5,GGTGAATCAT,0.985
6,GGTGAATGGT,1
7,GGTGACAGGT,1.01
8,GGTGAGTAAT,1
9,GGTGATTGCC,0.974
10,GGTGCAACGG,0.988
11,GGTGCACATA,0.991
12,GGTGCAGTGG,1.04
13,GGTGCGAGA,1.03
14,GGTGCGCTCG,0.965
15,GGTGCTCTCG,1
16,GGTGCTGCGG,1.01
17,GGTGGAGTGT,1.02
18,GGTGGATCCG,1.07
19,GGTGGCAGAC,1.07
20,GGTGGCGCGG,1.01
21,GGTGGCTTGA,0.966
22,GGTGGGTAGC,0.984
23,GGTGGGTGG,0.997
24,GGTGTACGCC,1.04
25,GGTGTACTAA,0.994
26,GGTGTAGAC,1.02

row,Sequence,switch fluorescence ratio
1,GGTGTAGTGG,1.01
2,GGTGTAGTGT,1.03
3,GGTGTATAAG,0.996
4,GGTGTATTAT,0.95
5,GGTGTATTC,0.986
6,GGTGTATTCA,1
7,GGTGTGCGCG,0.995
8,GGTGTTACAG,1.07
9,GGTGTTGTCC,0.963
10,GGTGTTTGAT,0.975
11,GGTTAAATGA,1.04
12,GGTTAAGCG,0.99
13,GGTTAATGGG,0.996
14,GGTTAATTTG,1
15,GGTTACCT,1.12
16,GGTTAGCCGT,1.02
17,GGTTAGTTCT,0.988
18,GGTTATAAAG,0.976
19,GGTTATATAA,1.11
20,GGTTATATTG,0.968
21,GGTTATGATG,0.975
22,GGTTCCAGTG,0.995
23,GGTTCCGGCA,1
24,GGTTCCTCA,1.02
25,GGTTCTAAGT,1.01
26,GGTTGACAAT,1.01

row,Sequence,switch fluorescence ratio
1,GGTTGATGCG,0.981
2,GGTTGCAGTG,1.07
3,GGTTGCCGGG,0.988
4,GGTTGGGTAT,0.993
5,GGTTGGTTAT,1.06
6,GGTTGTAGTG,0.981
7,GGTTGTGGTA,0.968
8,GGTTTAACGT,1.02
9,GGTTTCCACG,0.988
10,GGTTTCCGGT,0.969
11,GGTTTCGTG,0.992
12,GGTTTGACGA,1
13,GGTTTGGA,0.956
14,GGTTTGGAAT,1.06
15,GGTTTTCAG,1.03
16,GGTTTTGGAG,1.01
17,GGTTTTTAG,0.99
18,GTAAAAAATC,0.958
19,GTAAAAATGT,0.991
